The record followed here is the RNAGym collection of RNA variant scans (doi:10.1093/nar/gkz1192).

Sequences and labels used below:
B1: CPEB3 Ribozyme (parent)
chain: UAACAGGGGGCCACAGCAGAAGCGUUCACGUCGCAGCCCCUGUCAGAUUCUGGUGAAUCUGCGAAUUCUGCUGUAUAUCUC

The source gives no read counts; variants with many changes may rest on few reads.

The variants in this data set derive from B1. Nature of the data set: self-cleavage, relative activity (ratio to wild type); higher = more cleavage; in vitro, sequencing. A digest of the protocol:
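Relative activity compares each variant's cleaved/total read fraction with that of the unmutated ribozyme. To get these fractions, barcoded CPEB3 ribozyme libraries from rounds of error-prone PCR were transcribed with T7 RNA polymerase for 5 hours at 37°C and then given 15 min of DNase I treatment before EDTA was added. The RNAs were reverse transcribed with template switching and sequenced on Illumina, and DNA sequencing linked barcodes to variants. A minimum of 5 reads applied, and three batches were averaged.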
U25C A47G U51A U54C C62U A64U U69G: the self-cleavage is 0.05.
The same measure for U25C C38U A45U U54C U66A: 0.07.
Regarding U25C U31A C38A U41C U51C U72A, the self-cleavage was 0.11.
The value for U25C U43C U54C was 0.13; that for U26A A57U A64G was 0.28.
The same measure for U25C A28C U60A: 0.49; for U26A A45U U49C A65G: 0.17.
The value for U25C A56G A64U was 0.27; that for U25C C44U A56U U69C U72C was 0.09; that for U25C A35G U41A A47U U69A U78C was 0.07.
In the case of U25C U31C A45G, the self-cleavage was 0.12.
Turning to U25C C34U U72C, the self-cleavage was determined as 0.13.
The value for U25C A28G U76C was 0.46; that for U25C U41C A45U U48C U60C was 0.09.
The value for U25C U48C U72C was 0.35; that for U25C A65U U78C was 0.2; that for U25C C68U U80C was 0.45.
The same measure for U25C A35G A57G: 0.22; for U26A C39U G53U: 0.66.
On to U25C A28G U31G A57C U76C U78C, for which the self-cleavage amounted to 0.08.
The same measure for U26A C62U U78A: 0.32.
Take U26A C62U U78C: the self-cleavage is 0.14.
The value for U25C U31G A45U U69C was 0.22; that for U25C A57G U69A was 0.18.
The same measure for U25C C32A U49A: 0.34.
For the variant U25C U43A U54C A56U U69A, the self-cleavage was determined as 0.13.
The value for U26A C39U U43C A77G was 0.08.
As for U25C U43C U49C U60C, the self-cleavage turned out to be 0.23.
The value for U25C A28G A35G C40U G53C U78G was 0.13; that for U25G A35G C71G was 0.16.
The value for U25G U51C A64G U72C U74C was 0.1; that for U25C U51A U72C was 0.3.
Turning to U25C A28G A57G U60C G73A, the self-cleavage amounted to 0.38.
The value for U25C C38G U48C U66C was 0.13; that for U25C A56G C62G was 0.17.
The value for U25C C34G C38G A57G U58A was 0.13; that for U25C U41A U43A was 0.29.
Take U26A A56G U72C: the self-cleavage worked out at 0.56.
The same measure for U26A A28G G33U: 0.15.
The value for U25C U74A A77G was 0.28; that for U25G A35U G46U U58A U78C C79U was 0.06; that for U25A U54C U72C A77U was 0.17.
With U25C U51A U74G, the self-cleavage worked out at 0.11.
In the case of U25C A35U A64U U74C, the self-cleavage came out at 0.09.
The same measure for U25C G61A A65G: 0.38; for U25C C40A A45U A56U A77G: 0.17.
The same measure for U25C A35G U67A: 0.21.
The same measure for U25C A28C A64G U80C: 0.21.
Regarding U25C U26C C37G A47G, the self-cleavage was 0.26.
The same measure for U25C A45U G53C: 0.17; for U25G G30A A64G: 0.13; for U25C C44U U51A U80C: 0.07.
The value for U25C U49C U60A A75G was 0.1; that for U25C U43A U66G was 0.47.
The same measure for U26A A28G U41C: 0.22; for U25C U31A U80A: 0.16; for U25C U41C U67C U69C U72A: 0.38.
On to U25C A28C C37U U51G U80A, for which the self-cleavage was found to be 0.04.
The value for U25C U26A G33A A45G was 0.15; that for U26A G36C U60A was 0.13.
Take U25C A64G U69C: the self-cleavage came to 0.11.
The value for U26A C50A C81U was 0.78; that for U26A G42U A57U was 0.09.
For the variant U25C U41C A45G U48C A64U, the self-cleavage is 0.18.
The value for U26A G33A C79U was 0.07.
The same measure for U25C U26A U41A C44U U58A U72A: 0.06; for U25C A28U A45G U67A: 0.1; for U25C C38A U49C A75G: 0.04.
The same measure for U25C U41A U49C: 0.42; for U25C G55U A64G U78C: 0.1.
With U25C G73U U80C, the self-cleavage came out at 0.37.
Turning to U25C U60C U74A A75G, the self-cleavage was determined as 0.04.
The same measure for U25C A35G U41C A56G A65G U66A: 0.09.
The value for U25A U67C U69A was 0.15; that for U25C A47G A77U was 0.31; that for U26A C39U U48C U60C U67C U72C U76C was 0.06.
The value for U25C U31C U72G was 0.17; that for U25C G30U A77U was 0.16.
On to U25C C27U C62U, for which the self-cleavage was found to be 0.11.
The same measure for U25C U48C U72A U78C: 0.3; for U25C U49C U67A: 0.21.
For the variant U25C A45G U49A A64G, the self-cleavage is 0.06.
The same measure for U26A C34G U72A U78C: 0.05; for U25G U43A U72C: 0.33.
